The values below come from PubChem BioAssay AID1347073 (National Center for Advancing Translational Sciences (NCATS), 2019).

Screen size: about 45,000 compounds; about 200 (0.44%) were called active. Not shown: some 7% with an inconclusive outcome. The call rests on the fitted dose curve; in most records, active means well fitted activation curve with a large enough effect; inconclusive means small, poorly fitted or top-dose-only effect; inactive means no such curve, though single readings can be large or run the other way. The list shows a part of the results.
Potency means the concentration at half of the fitted maximal effect.

This assay is described as follows: qHTS of TDP-43 Inhibitors: NCGC Sytravon Library Screen. Further: nearly all actives have a fitted effect of over 55% in size. On growth rescue (activation): 0% is about no effect. The conditions noted are these: yeast TDP-43 toxicity rescue, BacTiter-Glo growth, 24 h; series mostly up to 46.1 µM; growth rescue (activation): at the top concentration. In a few lines: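 TDP-43-expressing yeast, pregrown in raffinose, seeded at OD600 0.02 in galactose medium with compound for 24 hr at 30 deg C. Growth read by BacTiter-Glo luminescence, so rescue of toxicity appears as activation.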
Consider `Nc1nnc(SCC(=O)NN2C(=O)NC3(CCCCC3)C2=O)s1`, for which the “growth rescue (activation)” value was inactive: 1.44%.
On the same count and under the same terms, the result for `Cc1ccc(NC(=O)Cn2c(O)c(N=NC(N)=S)c3ccccc32)cc1` reads inactive: 7.35%; that for `CSc1ccc(/C=C/C(=O)OCC(=O)N(C)CCC#N)cc1`, inactive: -17.4%.
On the same count and under the same terms, with `Cc1cc(C)cc(NC(=O)CSc2n[nH]c(-c3cccnc3)n2)c1` the figure was inactive: 0.911%.
Still for that read-out and setting: the result for `O=c1[nH]c(C2CCN(S(=O)(=O)c3ccc4c(c3)OCCO4)CC2)nc2c1nnn2Cc1c(F)cccc1Cl` reads inactive: -8.48%; that for `Cc1ccc(NC(=O)C2CCCN(c3nnc(-n4c(C)ccc4C)s3)C2)c(C)c1` (stereo not drawn), inactive: -3.69%; that for `N#Cc1ccccc1Cn1c(=O)n(CCCC(=O)NCc2ccc3c(c2)OCO3)c(=O)c2sccc21`, inactive: 0.451%.
For the compound `O=C(N/N=C/c1ccc([N+](=O)[O-])cc1)c1cccc2cc[nH]c12`, the “growth rescue (activation)” value is inactive: 5.92%.
The same measure, in the same setting: with `O=C(Nc1ccc2c(c1)OCO2)c1cc(-c2ccc(O)cc2)on1` the figure was inactive: 6.34%; with `CC(C)c1onc(C(=O)NCc2ccccn2)c1[N+](=O)[O-]`, inactive: -12.8%.
Still for that read-out and setting: with `Cc1cc(C)c[n+](C[n+]2cc(C)cc(C)c2)c1` the figure was inactive: 9.15%; with `O=C(NCc1ccco1)c1cc(S(=O)(=O)NC2CC2)ccc1Br`, inactive: 9.77%; with `CCOC(=O)c1cnc2c(C)c(C)ccc2c1Nc1ccc(S(=O)(=O)Nc2ncccn2)cc1`, inactive: 15.7%.
On the same count and under the same terms, with `CCN(CC)CCn1c(C)nc2ccccc21` the figure was inactive: 5.33%.
In the case of `CN(C)S(=O)(=O)c1ccc(/C(O)=C2/C(=O)C(=O)N(CCCN3CCOCC3)C2c2ccncc2)cc1` (stereo not drawn), the “growth rescue (activation)” value was inactive: 11.8%.
The same measure, in the same setting: with `O=C(Nc1cc(S(=O)(=O)Nc2ccccc2Cl)ccc1O)c1ccc(F)cc1F` the figure was inactive: -1.51%; with `CC1(Cc2ccc3c(c2)OCO3)C(=O)Nc2ccc(-c3cccc(C(F)(F)F)c3)cc21` (stereo not drawn), inactive: 1.56%; with `COc1ccc(Cl)cc1N(C)C(=O)c1ccc2c(=O)n3c(nc2c1)CCCCC3`, inactive: 15.9%.
On the same count and under the same terms, the result for `CCn1c(=O)c(C(=O)NNC(=O)c2ccccc2F)c(O)c2ccccc21` reads inactive: -43.4%; that for `COc1ccc(C(O)C(CC(=O)NCCCOC(C)C)C(=O)NCCCOC(C)C)cc1OC` (stereo not drawn), inactive: 15.5%; that for `COc1ccc(N2C(=O)CCC(C(=O)N(C)CCc3ccccn3)C2c2ccc(OC)c(OC)c2)cc1` (stereo not drawn), inactive: 10.3%.
As for `CCCCn1c(N)c(N(CCC(C)C)C(=O)c2ccccc2C)c(=O)[nH]c1=O`, the “growth rescue (activation)” value is inactive: 18.2%.
On the same count and under the same terms, with `O=c1c2ccccc2c(C=Nc2ccc(O)cc2)c(O)n1Cc1ccccc1` the figure was inactive: 16.4%.
Still for that read-out and setting: with `COCCCN1C(=O)/C(=C/c2ccc(CNS(=O)(=O)c3ccccc3)o2)C(C(=O)OC)=C1C` the figure was inactive: -10.2%; with `Cc1cccc(OCC(=O)Nc2ccccc2C(=O)N2CCOCC2)c1`, inactive: -19.8%.
`Cc1ccc(NC(=O)CN2C(=O)NC(C)(c3ccc(Cl)cc3)C2=O)cc1S(=O)(=O)N1CCOCC1` (stereo not drawn): the “growth rescue (activation)” value is inactive: 11.2%.
The same measure, in the same setting: with `CCc1ccc(C(=O)NNC(=O)CCC2CCCCC2)cc1` the figure was inactive: 33.1%.
On the same count and under the same terms, the result for `COc1cc(/C=C2\SC(=S)N(Nc3ncc(C(F)(F)F)cc3Cl)C2=O)ccc1O` reads inactive: -6.01%; that for `O=C(Nc1ccc(S(=O)(=O)NCc2ccco2)cc1)c1ccc2ccccc2n1`, inactive: 22.8%; that for `COc1ccc(NC(=O)CN(C)CC(=O)Nc2cccc3ccccc23)c(OC)c1`, inactive: 15.2%.
Take `CSc1ccc(S(=O)(=O)Nc2ccccc2C(=O)N2CCOCC2)cc1`: the “growth rescue (activation)” value was inactive: 5.56%.
Same read-out and setting: with `Cc1[nH]c(=S)[nH]c(=O)c1Cc1ccc(OCC(C)C)cc1` the figure was inactive: 1.81%; with `Cc1nc2ccccc2n(CC(=O)Nc2cc(Cl)cc(Cl)c2)c1=O`, inactive: 24.8%; with `CSc1ccccc1C(=O)C1CCCN(C(=O)NC(C)C)C1` (stereo not drawn), inactive: 5.35%.
On to `Cc1ccc(NC(=O)COc2ccc(CCO)cc2-n2nc3ccccc3n2)cc1C`, for which the “growth rescue (activation)” value was inactive: 27.6%.
The same measure, in the same setting: with `CCOc1ccc(S(=O)(=O)N2CCC(C(=O)NCc3ccco3)CC2)cc1C` the figure was inactive: 19.1%.
Same read-out and setting: the result for `CCC(C)OC(=O)C[N+](C)(C)CCOC1CC2CCC1(C)C2(C)C` (stereo not drawn) reads inactive: -4.91%; that for `O=c1[nH]c2ccccc2n2c(=S)[nH]nc12`, inactive: 6.43%; that for `COc1ccc(C(c2c(O)nc[nH]c2=O)c2c(O)nc[nH]c2=O)cc1`, inactive: 18%.
On the same count and under the same terms, the result for `O=C(CSc1nccc(=O)[nH]1)Nc1cc(C(F)(F)F)ccc1N1CCOCC1` reads inactive: -27.3%; that for `CN1C(=O)C2(OCC(C)([N+](=O)[O-])CO2)c2ccccc21` (stereo not drawn), inactive: 4.24%; that for `COc1ccc(CN(Cc2ccc(C(=O)O)cc2)C(=S)Nc2ccc(C)cc2)cc1OC`, inactive: 9.56%.
For `CC1(Cc2ccc(OC(F)(F)F)cc2)C(=O)Nc2ccc(OC(F)(F)F)cc21` (stereo not drawn), the “growth rescue (activation)” value was inactive: 19%.
With `O=C(OCC(=O)N1CCN(C(=O)c2ccco2)CC1)c1cc(F)c(F)cc1Cl`, the “growth rescue (activation)” value was inactive: 4.97%.
On the same count and under the same terms, the result for `Cc1cc(NC(=O)CSc2ncnc3sccc23)no1` reads inactive: 1.98%; that for `OC(c1cccc(Cl)c1)c1nc(-c2ccc3c(c2)OCO3)cs1` (stereo not drawn), inactive: 9.13%.
On the same count and under the same terms, with `O=C(N/N=C/c1ccc2c(c1)OCO2)c1sc2cc(Cl)ccc2c1Cl` the figure was inactive: 15.3%; with `CCN(CC)S(=O)(=O)c1ccc(/C=C/C(=O)OCC(=O)Nc2cccc3ccccc23)cc1`, inactive: 7.52%.
Still for that read-out and setting: with `Cc1ccc(N2C(=O)N(CC(=O)Nc3cc(C)cc(C)c3)C(=O)C2C)cc1` (stereo not drawn) the figure was inactive: 6.22%; with `COc1ccc(NC(=O)c2ccc(C)o2)c([N+](=O)[O-])c1`, inactive: -13.8%; with `CCCCCc1nnc(NC(=O)NS(=O)(=O)c2ccc(C)cc2)s1`, inactive: 3.94%.
Take `Cc1cccnc1C(NC(=O)C1CCN(CCCOc2ccc(F)cc2)CC1)c1ccccc1` (stereo not drawn): the “growth rescue (activation)” value is inactive: 8.24%.
Still for that read-out and setting: with `C=CCNC(=O)CC(C)C(CCCCC)C(=O)O` (stereo not drawn) the figure was inactive: 14.3%; with `CCn1nc(C)c(CN2CCN(Cc3ccsc3)C(CCO)C2)c1C` (stereo not drawn), inactive: 7.15%; with `CNc1cnc(-c2ccc(C(=O)N3CCOCC3)cc2)cn1`, inactive: 5.18%.
Turning to `COc1ccc(NC(=O)CSc2ccccc2)cn1`, the “growth rescue (activation)” value is inactive: 28.5%.
On to `COc1ccc(F)cc1Cn1nc(C(=O)O)c2ccccc2c1=O`, for which the “growth rescue (activation)” value is inactive: 9.39%.
In the case of `Cc1cc(-c2nc3ccccc3c(=O)o2)ccc1[N+](=O)[O-]`, the “growth rescue (activation)” value was inactive: 1.77%.
Still for that read-out and setting: the result for `COCc1cc(C)nc(SCC(=O)Nc2ccc(N3CCOCC3)cc2)c1C#N` reads inactive: 5.88%; that for `O=C(Cc1ccccc1C(=O)O)Nc1cccc2ccccc12`, inactive: 12.3%; that for `Cc1ccc(S(=O)(=O)N2CCC[C@H]2C(=O)Nc2ccccc2Cl)cc1`, inactive: 23.9%.
Still for that read-out and setting: with `CCC(OC(=O)c1ccco1)C(=O)NCc1ccc(OC)cc1` (stereo not drawn) the figure was inactive: 5.01%; with `COc1ccc(CN(Cc2ccc(C(=O)O)cc2)C(=S)Nc2ccccc2F)cc1OC`, inactive: -2.26%; with `COc1ccccc1NS(=O)(=O)c1cccc(NC(=O)c2cncc(Br)c2)c1`, inactive: -19.6%.
Still for that read-out and setting: with `O=C(NNC(=O)c1ccccc1-c1ccccc1C(=O)O)c1ccccc1` the figure was inactive: 3.79%; with `COC(=O)c1cc2c(ccn2-c2ccc(F)cc2)n1CC(=O)OC(C)C`, inactive: 17.2%.
Consider `CC1Cc2ccccc2N1C(=O)COC(=O)c1ccc([N+](=O)[O-])o1` (stereo not drawn), for which the “growth rescue (activation)” value is inactive: 37.2%.
The same measure, in the same setting: the result for `O=C1CS/C(=N\N=C\c2ccco2)N1c1ccccc1` reads inactive: -7.72%; that for `CC(NC(=O)COC(=O)c1cc(S(=O)(=O)N2CCOCC2)ccc1F)c1ccccc1` (stereo not drawn), inactive: 8.45%; that for `O=[N+]([O-])c1cc(S(=O)(=O)Nc2cccc(Cl)c2)ccc1N=Nc1c(O)[nH]c2ccccc12`, inactive: 4.46%.
On to `O=C(NCc1cccnc1)c1ccc(CS(=O)(=O)c2ccc(Cl)cc2)o1`, for which the “growth rescue (activation)” value was inactive: -5.7%.
Same read-out and setting: the result for `Cc1cccc(NS(=O)(=O)c2cccc3nonc23)c1` reads inactive: 27%; that for `CCCc1nc2sc3c(c2c(=O)n1NC(=O)CCC(=O)OC)CCCC3`, inactive: 12.3%.
On the same count and under the same terms, with `CC1(C(=O)Nc2ccccc2)Cc2c(-c3cccc(C(N)=O)c3)ccnc2O1` (stereo not drawn) the figure was inactive: -4.26%.
As to `O=C1c2ccccc2C(=O)N1OCc1c(F)cccc1Cl`, the “growth rescue (activation)” value was inactive: -17.8%.
With `O=C(CSc1ccc([N+](=O)[O-])cc1)Nc1cccc(S(=O)(=O)Nc2ccccc2F)c1`, the “growth rescue (activation)” value is inactive: -6.21%.
Same read-out and setting: the result for `COc1cc(OC)cc(C(=O)N[C@H](C(=O)Nc2cc(F)ccc2C)C(C)C)c1` reads inactive: 0.644%; that for `CCOC(=O)c1sc(C)c2c(=O)n(Cc3ccc(Cl)cc3)cnc12`, inactive: 1.62%.
On the same count and under the same terms, with `CC1CCCN(CCCN2C(=O)C3C(C(=O)Nc4cccc(Cl)c4)C4C=CC3(O4)C2C(=O)NC2CCCCC2)C1` (stereo not drawn) the figure was inactive: 12.1%; with `Cc1ccccc1-c1nc(CN2CCCC2c2ccc(F)cc2)c(C)o1` (stereo not drawn), inactive: 2.27%; with `COC(=O)c1ccc(NC(=S)NC2CC(C)(C)NC(C)(C)C2)cc1`, inactive: 20.4%.
Still for that read-out and setting: the result for `COC(=O)c1c(N2C(=O)CC(Sc3ccccc3C(=O)O)C2=O)sc2c1CCCC2` (stereo not drawn) reads inactive: 9.74%; that for `Cc1cc(C)nc(N/N=C/C2=C(N3CCOCC3)C(=C\c3ccc(Cl)cc3)/CC2)n1`, inactive: 13%.
With `CCOc1ccc2c(=O)c(-c3ccc4c(c3)OCCCO4)c(C)oc2c1`, the “growth rescue (activation)” value was inactive: -1.61%.
Consider `CCn1ncc(Br)c1C(=O)Nc1cc(C(=O)OC)ccc1C(=O)OC`, for which the “growth rescue (activation)” value is inactive: 17.3%.
On the same count and under the same terms, with `Cc1nc(-c2ccccc2)ccc1C(=O)O` the figure was inactive: 3.2%; with `Cc1cc(NS(=O)(=O)c2ccc(NC(=O)C(C)Oc3ccccc3Cl)cc2)no1` (stereo not drawn), inactive: 20.8%; with `COc1ccc(-c2nnc(SCC(=O)N3CCCC3)o2)cc1`, inactive: 22.6%.
The same measure, in the same setting: the result for `Cc1occc1C(=O)N/N=C/c1ccc(Cl)c([N+](=O)[O-])c1` reads inactive: 4.78%.
The same measure, in the same setting: the result for `Cc1ccc2c(c1)N(CC(=O)Nc1nccs1)C(=O)CO2` reads inactive: 25.6%; that for `Cn1c(CCC(=O)O)nc2cc(S(=O)(=O)N3CCCC3)ccc21`, inactive: -5.3%.
In the case of `Cc1nc2c(OCc3ccc(F)cc3)cccn2c1N(C)C(=O)CCC1CCCC1`, the “growth rescue (activation)” value is inactive: 2.61%.
Consider `CCOC(=O)N1CCN(C(=O)CNC(=O)c2nn(-c3ccc(OC)cc3OC)c(=O)c3ccccc23)CC1`, for which the “growth rescue (activation)” value is inactive: -3.37%.
Consider `COC(=O)c1cc2sc(C)cc2n1Cc1ccc(F)cc1Cl`, for which the “growth rescue (activation)” value was inactive: 8.39%.
On the same count and under the same terms, with `S=C(NCCc1cnc[nH]1)NC1CCCC1` the figure was inactive: 5.15%.
`CC1CCCCC12NC(=O)N(CC(=O)NCc1ccccc1)C2=O` (stereo not drawn): the “growth rescue (activation)” value was inactive: 1.06%.
On to `Nn1c(SCc2cccc(Oc3ccccc3)c2)nnc1C(F)(F)F`, for which the Potency was active: 12.6 µM.
On to `O=C(CN1CCN(c2ccc(O)cc2)CC1)Nc1ccc(-c2ccccc2)cc1`, for which the “growth rescue (activation)” value is inactive: 1.17%.
The same measure, in the same setting: the result for `Cc1ccc(-n2nnnc2SC(C(=O)c2c[nH]c3ccccc23)c2ccccc2)cc1` (stereo not drawn) reads inactive: -22.3%; that for `CCCC(NC(=O)CCl)c1ccccc1` (stereo not drawn), inactive: 10.6%; that for `CCOC(=O)c1c(C(=O)OCC)c(C)n(Cc2cc(OC)c(OC)c(OC)c2)c1C`, inactive: 2.26%.
The same measure, in the same setting: the result for `C=CCN1C(=O)/C(=C\C(C)=C\c2ccccc2)SC1=S` reads inactive: -8.98%; that for `COC(=O)c1sc(N2C(=O)c3oc4ccccc4c(=O)c3C2c2cccc(O)c2)nc1C` (stereo not drawn), inactive: 14.7%.
